# Measured values from PubChem BioAssay AID485344 (National Center for Advancing Translational Sciences (NCATS), 2010).
# About 6,900 (2%) of roughly 340,000 compounds were called active. No stated cut-off is given here; in the data, active means inhibition above about 30%; inactive means below that, where a call was filed. Only a part is listed here, and it is no random draw. Entries without a call were filed so in the source.
# Target: D(2) dopamine receptor (Homo sapiens) (UniProt P14416)
# Assay: HTS Assay for Allosteric Antagonists of the Human D2 Dopamine Receptor: Primary Screen for Antagonists; further: 0% is about no effect
# Settings: HEK293 TREx D2 cells, calcium flux, dopamine EC80; at 10 µM; stronger effect = higher value
# In short: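 Tetracycline-induced HEK293 T-REx cells expressing D2 force-coupled to calcium signalling were dye-loaded, exposed to compound for 180 s, then challenged with an EC80 of dopamine; calcium flux was followed kinetically for a further 180 s.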
# UniProt P14416, sequence (P14416 whole entry, looked up): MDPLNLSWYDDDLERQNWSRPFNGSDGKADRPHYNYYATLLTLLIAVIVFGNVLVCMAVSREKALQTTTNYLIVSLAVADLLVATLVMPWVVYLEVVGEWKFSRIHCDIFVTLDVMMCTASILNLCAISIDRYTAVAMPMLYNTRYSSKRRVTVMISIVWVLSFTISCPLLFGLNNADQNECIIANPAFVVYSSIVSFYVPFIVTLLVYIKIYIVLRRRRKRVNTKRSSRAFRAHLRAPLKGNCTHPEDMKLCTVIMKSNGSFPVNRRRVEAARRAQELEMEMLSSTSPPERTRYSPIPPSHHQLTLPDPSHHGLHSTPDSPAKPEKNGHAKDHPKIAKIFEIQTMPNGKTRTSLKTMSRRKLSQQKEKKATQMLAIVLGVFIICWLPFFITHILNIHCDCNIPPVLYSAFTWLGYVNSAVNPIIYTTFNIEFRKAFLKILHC
row,SMILES,inhibition
1,CCCCN1C(=O)C(O)(CC(=O)c2ccc(C(C)(C)C)cc2)c2ccccc21 (stereo not given),-7.72%
2,Cc1ccc(-c2cc(C(=O)NCc3ccccc3Cl)c3ccccc3n2)cc1C,6.07%
3,COc1ccc2cc3c(N)nn(C(=O)c4ccc(OC)c(OC)c4)c3nc2c1,-14.4%
4,O=C(Nc1ccccc1C(F)(F)F)n1ncc2cc(Cl)ccc21,-13.3%
5,CCOC(=O)c1[nH]c2ccccc2c1NC(=O)c1ccc(Br)cc1,-8.97%
6,COc1cccc(CNC(=O)C2CCN(S(=O)(=O)c3ccc4c(c3)CCCN4C(C)=O)CC2)c1,2.98%
7,Cc1ccc2c(c1)N(CCCC(=O)Nc1cccc(C(F)(F)F)c1)C(=O)CO2,8.14%
8,CCc1ccc(NC(=O)Cn2c(=O)n(CCCCC(=O)NCCc3ccc(Cl)cc3)c(=O)c3ccccc32)cc1,-8.02%
9,Cc1ccc2ncc(C(=O)Nc3ccc(OC(F)(F)F)cc3)c(=O)n2c1,25.5%
10,CCOC(=O)c1c(NC(=O)c2nc(S(C)(=O)=O)ncc2Cl)sc(C(C)=O)c1C,-17.7%
11,O=c1[nH]c2ccc(NCc3ccc(-c4ccc(Br)cc4)o3)cc2[nH]1,5.75%
12,O=C1CCCc2cc(S(=O)(=O)N3CCCC(C(=O)NCc4ccc(Cl)cc4)C3)ccc2N1 (stereo not given),-4.94%
13,COc1cc(OC)cc(-c2nc(-c3ccc4c(c3)[nH]c(=O)n4C)no2)c1,2.79%
14,Cc1ccccc1-c1nnn(CC(=O)Nc2sc3c(c2C#N)CCC(C(C)(C)C)C3)n1 (stereo not given),-1.07%
15,COC(=O)c1cc(NC(=O)Cc2cc(OC)c(OC)c(OC)c2)cc(C(=O)OC)c1,active: 40.3%
16,COc1cccc(C2CC(=O)Nc3c2c(=O)[nH]c2nc4ccccc4n32)c1 (stereo not given),-21%
17,COc1ccc(C(=O)NCC(c2ccc3c(c2)OCO3)N2CCN(c3ccccc3F)CC2)cc1 (stereo not given),25.5%
18,Cc1cc(-c2ccc(C(C)C)c(S(=O)(=O)Nc3ccccn3)c2)on1,active: 31.2%
19,O=C(COc1ccc([N+](=O)[O-])cc1)Nc1nc2c(s1)CCCC2,14.7%
20,O=C(NCC(c1ccc(Cl)cc1)N1CCOCC1)c1ccccc1F (stereo not given),9.32%

row,SMILES,inhibition
1,CCOc1ccc(-c2nnc(SCC(=O)Nc3cccc(OC)c3)nc2-c2ccc(OCC)cc2)cc1,-16.2%
2,CSc1nc(Nc2ccc(F)cc2)cc(-c2ccccc2)n1,-5.99%
3,CCOc1ccc(-c2nn(-c3ccccc3)cc2C2NC(=O)NC(C)=C2C(=O)OC(C)C)cc1 (stereo not given),-16.4%
4,CCCCOc1ccc(C(=O)Nc2ccc(-c3cc4ccccc4oc3=O)cc2)cc1,-4.22%
5,CC(C)(C)OC(=O)N1CCC(c2c(C(=O)NCCN3CCc4ccccc4C3)cnn2-c2ccc(F)cc2)CC1,5.33%
6,Cc1ccc(CNC(=O)Nc2cc(C(=O)NCc3ccc(C(C)C)cc3)ccc2N2CCCC2)cc1,10.6%
7,CC(C)c1ccc(OCC(=O)NCCS(=O)(=O)N2CCN(c3ccc(F)cc3)CC2)cc1,-11.1%
8,Cc1c(Cl)cccc1NC(=O)c1ccc2c(c1)CCCN2S(C)(=O)=O,1.16%
9,CCn1c(=O)cc(SCC(=O)NCc2cccc(Cl)c2)c2ccccc21,-1.3%
10,COc1ccc(Cn2c(C(=O)O)c(CNC3CCCC3)c3ccc(OC)cc32)cc1,4.4%
11,COc1ccccc1C(=O)N1c2ncnn2C2(CCCCC2)[C@@H]2CCCC[C@@H]21,0.248%
12,CCOC(=O)c1ccc(NC(=O)C(CC)Sc2nc3ccncc3[nH]2)cc1 (stereo not given),11.6%
13,Cc1cc(C)cc(-n2c(C)cc(C(=O)C(=O)Nc3ccccc3F)c2C)c1,-1.59%
14,Cc1ccccc1CN1C(=O)c2ccccc2S(=O)c2ccc(C(=O)NCc3ccc(Cl)cc3)cc21 (stereo not given),3.73%
15,CCC(=O)C1=C(c2ccc(F)cc2)N(C(=O)CC)n2cnnc2S1,10.4%
16,CCCOc1ccc(-c2cccc(NS(=O)(=O)c3ccccc3)c2)nn1,-8.95%
17,COc1ccccc1N1CCN(CC(O)c2ccc3cc[nH]c3c2)CC1 (stereo not given),active: 59.6%
18,Cc1ccc2cccc(NC(=O)c3ccc(OC(C)C)cc3)c2n1,5.78%
19,O=C(NCc1ccc2c(c1)OCO2)c1ccc2c(c1)N(Cc1ccccc1F)C(=O)c1ccccc1S2,-15.7%
20,CCc1ccccc1NC(=O)CN(c1ccccc1)S(=O)(=O)c1ccsc1C(=O)OC,9.19%

row,SMILES,inhibition
1,CCc1ccccc1NC(=O)Cn1cc(S(=O)(=O)N2CCCC2)c(S(=O)(=O)N2CCCC2)c1,6.11%
2,O=C(c1ccco1)N(Cc1cccnc1)c1nc2c(F)cc(F)cc2s1,14.3%
3,COc1ccccc1NC(=O)CSc1nncn2c1cc1sccc12,8.95%
4,Cc1ccccc1CNC(=O)c1ccc2nc(SCc3ccc(F)cc3)n(C)c2c1,2.71%
5,CCOCCCNC(=O)C(c1ccccc1)N(Cc1ccc2c(c1)OCO2)C(=O)c1ccc(NC(C)=O)cc1 (stereo not given),4.8%
6,Cc1c(C(=O)NCCN(C)C)oc2ccc(S(=O)(=O)N3CCC4(CC3)OCCO4)cc12,active: 33.4%
7,CCc1ccc(NC(=O)CSc2nccn2-c2ccc(F)cc2)cc1,16.2%
8,COc1ccc(N2CC(NC(=O)/C=C\c3ccc4c(c3)OCO4)CC2=O)cc1OC (stereo not given),-4.89%
9,COc1ccc(NC(=O)CN(C)S(=O)(=O)c2ccc3c(c2)CCCN3C(C)=O)cc1,-11.8%
10,CCSc1nc2n(n1)C(c1ccc(Cl)cc1Cl)C(C(=O)Nc1ccccc1C)=C(C)N2 (stereo not given),-23.1%
11,CCCCOc1ccc(C(=O)N(Cc2ccc(N(C)C)cc2)Cc2ccco2)cc1,-1.96%
12,Cc1ccc(-n2ccn(CC(=O)NCCc3ccccc3)c(=O)c2=O)cc1C,14.3%
13,CC(C)(C)c1ccc(-c2nc(NC(=O)CSc3ncnc4sc5c(c34)CCCC5)ns2)cc1,-15%
14,Cc1ccc(-n2ncc3c(NCc4ccccc4)ncnc32)cc1Cl,-4.67%
15,Cc1ccc(CN2CCN(c3ccccc3)CC2)o1,active: 69.9%
16,COc1cccc(CN2C(=O)c3ccccc3Sc3ccc(C(=O)OCc4ccco4)cc32)c1,9.75%
17,Cc1cccc(NC(=O)CSc2nc3ccc(NC(=O)c4ccccc4)cc3s2)c1,1.6%
18,CC1=C(c2ccc(Cl)cc2)S(=O)(=O)N=C1N1CCN(c2cccc(C)c2C)CC1,8.45%
19,Fc1ccc(NCc2ccccc2-c2nnc(-c3ccccc3Cl)o2)cc1,4.56%
20,CCOc1ccc(-c2cc3nc(C4CCN(C(=O)OC(C)(C)C)CC4)c(C(=O)Nc4cccc(CC)c4)cn3n2)cc1,-0.288%
